# Laboratory results from PubChem BioAssay AID504832 (National Center for Advancing Translational Sciences (NCATS), 2011).
# Hit rate of the full screen: of about 310,000 compounds, about 18,000 (5.8%) were called active. The inconclusive results got no clear call from the source; some entries with a clear call stand among them for comparison. Calls come from the whole dose curve; as a rule, active = well fitted inhibition curve with a large enough effect; inconclusive = small, poorly fitted or top-dose-only effect, or another doubt; inactive = no such curve, though single readings can be large or run the other way. No potency is given beside an inconclusive call; the fits are too rough.
# Experiment: Primary qHTS for delayed death inhibitors of the malarial parasite plastid, 48 hour incubation
# Conditions: P. falciparum luciferase growth in erythrocytes; series mostly up to 28.7 µM; activity change, negative = inhibition: at the top concentration
# Summary of the method: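 Parasite viability was followed by luminescence of a genomically integrated firefly luciferase. Cultures held 0.1% parasitemia at 2% hematocrit (final), incubated under 5% CO2 at 37 C.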
# % is set by controls: 0 for no effect and ±100 for the full control effect; potency is the fitted concentration of half-maximal effect; tags give direction and shape of the fitted curve.
SMILES,Potency,"activity change, negative = inhibition"
CC(C)C(=O)NC(=S)Nc1ccccc1N1CCN(C(=O)c2ccccc2)CC1,"inconclusive [inhibitor, partial curve, poor fit]",–
Nc1c(C(=O)N/N=C/c2cccnc2)oc2nc(-c3ccco3)cc(-c3ccco3)c12,"inconclusive [inhibitor, partial curve, poor fit]",–
Cc1csc(NC(=O)CSc2ncn(-c3ccccc3)n2)n1,–,inactive: 10.5%
N#CC1(c2ccccc2)CCC(NCCc2ccccc2)CC1 (configuration not stated),"inconclusive [inhibitor, single point]",–
Cc1cc(C(F)F)n2nc(C(=O)Nc3cccc(S(=O)(=O)N4CCOCC4)c3)nc2n1,"inconclusive [inhibitor, single point]",–
O=C(Nc1ccc(Oc2ccc(NC(=O)C3CCCO3)cc2)cc1)C1CCCO1 (configuration not stated),"inconclusive [inhibitor, single point]",–
CCC1(c2ccc(OC)cc2)NC(=O)N(CC(=O)NC2CCCCC2C)C1=O (configuration not stated),–,inactive: -26.1%
CC(C)N(C(=O)CSc1nnc(Cc2csc(Nc3ccccc3)n2)o1)C(C)C,"inconclusive [inhibitor, partial curve]",–
CCC(C)N(C(=O)CSc1nc(C)c(C)c(C)c1C#N)C1CCS(=O)(=O)C1 (configuration not stated),"inconclusive [inhibitor, single point]",–
C/C(Cl)=C/Cn1c(=O)c2c(nc(Br)n2Cc2ccccc2)n(C)c1=O,"inconclusive [inhibitor, single point]",–
O=C(C1CCN(S(=O)(=O)c2ccc(Cl)cc2)CC1)N1CCN(c2ccccn2)CC1,"inconclusive [inhibitor, single point]",–
O=C(c1ccc(-c2cccc([N+](=O)[O-])c2)o1)N1CCN(c2ccc([N+](=O)[O-])cc2)CC1,"inconclusive [inhibitor, full curve, poor fit]",–
Cc1ccc([N+](=O)[O-])c(C)[n+]1C,"inconclusive [inhibitor, single point]",–
Cc1csc2c(=O)n(CCO)c(=O)[nH]c12,"inconclusive [inhibitor, single point]",–
COc1ccc(C(=O)C2CCCN(C(=O)CCC3=NNC(=O)CC3)C2)c(C)c1 (configuration not stated),–,inactive: -0.282%
COc1ccc(/C=N/Nc2cc(N3CCOCC3)nc(C)n2)c(OC)c1,"inconclusive [inhibitor, partial curve]",–
CC(Sc1nc2ccc(C(=O)c3ccccc3)cc2[nH]1)C(=O)O (configuration not stated),"inconclusive [inhibitor, partial curve, poor fit]",–
